# Test results taken from the supplement of paper PMC11417369.
# Some of the results follow.
# Test system: PfSIP2 AP2 domain 1 (GST-tagged)
# Test: gcPBM binding intensity (ln(normalized median fluorescence intensity)); higher = stronger DNA binding
# Procedure, shortened: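 An Agilent 4 × 180k array carrying primer-extended double-stranded 36-bp intergenic genomic probes and negative controls received GST-tagged P. falciparum DNA-binding domains expressed in E. coli, about 25 μg on average, for 1 h. The binding buffer contained 1× PBS, 1% milk, 0.2 mg/ml BSA, 0.5% salmon testes DNA and 0.03% Triton X-100. Binding intensity is the top Masliner-normalised natural-log median intensity across replicate spots of either probe orientation, read after Alexa488 anti-GST antibody staining and a 488 nm scan.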
row,Sequence,gcPBM binding intensity (ln)
1,TACGTATTTTAATATTTACACACTTATTTTTTATAT [CACACA_site7924],7.07
2,GGCAATACATAATAATGTACATAATTATATAATATT [XGTACX_site3739],7.01
3,TATATCTGTTTATATTGTACACATATATATATATAT [XGTACX_site714],9.28
4,TAAATATATTAATACACACACGATATGTACAAAAAA [CACACA_site540],7
5,TATATATATATATAATGTACATATAATATATTTATT [XGTACX_site7892],9.04
6,TGCATATACGCAAGCACACATATATATATATATATA [CACACA_site1069],9.42
7,TTTTGATTTCCTATTGCACACTTTTTTTAAGTTTAT [CACACA_site1056],7.21
8,GCTTAATGTCATATATCACACATGAAAATATATATA [CACACA_site5089],7.24
9,ATTAATTTTAATAAAGGTACACGTAGTTTTTTATTA [XGTACX_site7868],6.91
10,TTAAAATTAAAAATGCGTACACATATACATAAAAAA [XGTACX_site1915],7.22
11,AACAAAACCTTATATGTACACACATATACATCACAC [CACACA_site9037],7.44
12,TATATATATATATATTGTACTGAACGTTTTTTTTTG [XGTACX_site8060],9.25
13,ACAGCTACCAGATACTGTACTTTTCTCCAGACTGCA [XGTACX_site2541],6.68
14,AATTTATAATTATAGAGTACATATTTTTAATATATA [XGTACX_site2566],6.84
15,ATATACACTTAATTTTTTATAAAAAAAAATTTATAT [CACACA_negctrl_site498],7.06
16,GTAATAATTTTTTGTAGTACACAAAAATTCATATTT [XGTACX_site2699],7.15
17,ATGTGATATAAGTACACACACATATGTATTTATAAC [CACACA_site6942],7.1
18,TATATTTTGTTCTTTCCACACACAAATACATATATT [CACACA_site9348],7.13
19,ATATACATAATCTTCTTGCACTTTTTTTTTTTTTTT [GTGCAC_site9410],8.96
20,AGGATTAAAAAAACATGTACGTATTTAAATATATTT [XGTACX_site8774],7.1
21,TACTGGTATCGATATAGTACATATAATATTATGTTA [XGTACX_site7490],7.03
22,AATTGAATAAATTAAACATGCACAGATGTTCTATTT [TGCATGCA_site692],6.89

row,Sequence,gcPBM binding intensity (ln)
1,GTATAAAAAAATAAAAGTACAAAAAAAAAAGACTGA [XGTACX_site186],7.18
2,AAATAAAAAATATGAACACACATATATAACAAAATA [CACACA_site261],7.14
3,TTTTTTTTTTTTTTTTTTTTTTTTTTTTTTTTTTTT [CACACA_negctrl_site104],9.09
4,ATATAAATAAAATATACACACATAAATATAACGACA [CACACA_site1637],7.12
5,ACGAAGATTTATCTTGCACACGCAAAAAAAAAAAAA [CACACA_site7933],7.06
6,AACATTTCCTTTCTGTGTACATATAAACCCATCTAT [XGTACX_site2071],7.29
7,ATTATATTTTGTAAATGTACATTTATATATTTTGTA [XGTACX_site1226],6.95
8,AAAAAAAAAAAAAAAGCATGCACATATTATTTTTTT [TGCATGCA_site416],7.52
9,ATTCATAAACGTGTGTTAATATGAATTTAAACATAA [XGTACX_negctrl_site213],6.79
10,TTAATAATTAATTATAGTACACATTTATATTAATAA [XGTACX_site190],7.03
11,TTATTTAAAAAATTTTTAAATATACAAAAAAAAAAA [TGCATGCA_negctrl_site464],6.88
12,ATTATAAGAAGGGGGGGTACATAAATATAAATGTAT [XGTACX_site5624],9.13
13,TTTAATTTTCGGTGTGCACACAACTATGAGTTTTTA [CACACA_site3034],8.63
14,TTTAAAAAAAAAAATACACACATAAAAATTTTCAAA [CACACA_site703],6.8
15,TTCAAGCCCTTCTGCTTACACACAGTAATTATTGTG [CACACA_site2952],6.7
16,TATTTTTATTATATGGTGCATATATACATACATATA,10.4
17,AAGTGCATATTATTCACACATAATAATTGTATACCT [CACACA_site5965],8.63
18,AAAAAAAAAAAACACACACACAATAGTATATAAATC [CACACA_site956],6.92
19,ATATGATCATAAAACACACACACAAAAAAAAAAAAA [CACACA_site1806],6.97
20,ATCCACTTTTTGAAGACACACACAAAAAAAAAAAAA [CACACA_site8818],7.21
21,AATTAGATGGATAAATGTACATAATGTGAATATATT [XGTACX_site86],6.97
22,TAAAAATAATTTGCATGTACATAGGTCGATGTATTT [XGTACX_site1357],7.08
